The supplement of paper PMC12230231
± gives the standard deviation of the averaged measurements. Restriction of a single-cycle SIVsab GFP reporter by TRIM5α v1-loop variants in CRFK cells. Human variants: read share among cells still uninfected after two challenges over input, higher = gained restriction. Rhesus variants: share among infected cells over input, higher = lost restriction. Reporter dose not given per row. No active / inactive call per row; the paper calls a change when both replicates lie above its controls (mean + 2 SD of stop or wild-type variants, or the top frameshift score). Residues outside the varied loop are taken from Swiss-Prot. The paper reads the human single-substitution scores as noise; they and the rhesus combinations repeat poorly (rank correlation 0.3 to 0.4), indel scores repeat only for the top variants, rhesus substitutions well (0.9).

test system: SIVsab (simian immunodeficiency virus of sabaeus monkeys), single-cycle GFP reporter, in CRFK cells; experiment: enrichment among infected cells over input (fold); higher = weaker restriction; settings: library: human / rhesus combinations
Protocol: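 Pools of CRFK cells expressing variants of the TRIM5α v1 loop were challenged with the single-cycle reporter, sorted by GFP and sequenced; mean of two replicates.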

Sequence	enrichment
MASGILLNVKEEVTCPICLELLTEPLSLHCGHSFCQACITANHKKSMLYKEGERSCPVCRISYQPENIQPNRHVANIVEKLREVKLSPEEGQKVDHCARHGEKLLLFCQEDSKVICWLCERSQEHRGHHTFLMEEVAQEYHVKLQTALEMLRQKQQEAEKLEADIREEKASWKIQIDYDKTNVSADFEQLREILDWEESNELQNLEKEEEDILKSLTKSETEMVQQTQYMRELISELEHRLQGSMMDLLQGVDGIIKRIENMTLKKPKTFHKNQRRVFRAPDLKGMLDMFRELTDARRYWVDVTLAPNNISHAVIAEDKRQVSSRNPQIMYGARGTRFTFQSFVNFNYCTGVLGSQSITSGKHYWEVDVSKKSAWILGVCAGFQSDAMYNIEQNENYQPKYGYWVIGLQEGVKYSVFQDGSSHTPFAPFIVPLSVIICPDRVGVFVDYEACTVSFFNITNHGFLIYKFSQCSFSKPVFPYLNPRKCTVPMTLCSPSS [rhesus TRIM5α, 332-344 = GARGTRFTFQSFV]	0.807 ± 0.2
MASGILLNVKEEVTCPICLELLTEPLSLHCGHSFCQACITANHKKSMLYKEGERSCPVCRISYQPENIQPNRHVANIVEKLREVKLSPEEGQKVDHCARHGEKLLLFCQEDSKVICWLCERSQEHRGHHTFLMEEVAQEYHVKLQTALEMLRQKQQEAEKLEADIREEKASWKIQIDYDKTNVSADFEQLREILDWEESNELQNLEKEEEDILKSLTKSETEMVQQTQYMRELISELEHRLQGSMMDLLQGVDGIIKRIENMTLKKPKTFHKNQRRVFRAPDLKGMLDMFRELTDARRYWVDVTLAPNNISHAVIAEDKRQVSSRNPQIMYGARGTRFQSFVNFNYCTGVLGSQSITSGKHYWEVDVSKKSAWILGVCAGFQSDAMYNIEQNENYQPKYGYWVIGLQEGVKYSVFQDGSSHTPFAPFIVPLSVIICPDRVGVFVDYEACTVSFFNITNHGFLIYKFSQCSFSKPVFPYLNPRKCTVPMTLCSPSS [rhesus TRIM5α, 332-344 = GARGTRFQSFV]	2.82 ± 3.2
MASGILLNVKEEVTCPICLELLTEPLSLHCGHSFCQACITANHKKSMLYKEGERSCPVCRISYQPENIQPNRHVANIVEKLREVKLSPEEGQKVDHCARHGEKLLLFCQEDSKVICWLCERSQEHRGHHTFLMEEVAQEYHVKLQTALEMLRQKQQEAEKLEADIREEKASWKIQIDYDKTNVSADFEQLREILDWEESNELQNLEKEEEDILKSLTKSETEMVQQTQYMRELISELEHRLQGSMMDLLQGVDGIIKRIENMTLKKPKTFHKNQRRVFRAPDLKGMLDMFRELTDARRYWVDVTLAPNNISHAVIAEDKRQVSSRNPQIMYGARGTLFQSFTNFNYCTGVLGSQSITSGKHYWEVDVSKKSAWILGVCAGFQSDAMYNIEQNENYQPKYGYWVIGLQEGVKYSVFQDGSSHTPFAPFIVPLSVIICPDRVGVFVDYEACTVSFFNITNHGFLIYKFSQCSFSKPVFPYLNPRKCTVPMTLCSPSS [rhesus TRIM5α, 332-344 = GARGTLFQSFT]	2.63 ± 2.4
MASGILLNVKEEVTCPICLELLTEPLSLHCGHSFCQACITANHKKSMLYKEGERSCPVCRISYQPENIQPNRHVANIVEKLREVKLSPEEGQKVDHCARHGEKLLLFCQEDSKVICWLCERSQEHRGHHTFLMEEVAQEYHVKLQTALEMLRQKQQEAEKLEADIREEKASWKIQIDYDKTNVSADFEQLREILDWEESNELQNLEKEEEDILKSLTKSETEMVQQTQYMRELISELEHRLQGSMMDLLQGVDGIIKRIENMTLKKPKTFHKNQRRVFRAPDLKGMLDMFRELTDARRYWVDVTLAPNNISHAVIAEDKRQVSSRNPQIMYGAPGTRFTFPTFVNFNYCTGVLGSQSITSGKHYWEVDVSKKSAWILGVCAGFQSDAMYNIEQNENYQPKYGYWVIGLQEGVKYSVFQDGSSHTPFAPFIVPLSVIICPDRVGVFVDYEACTVSFFNITNHGFLIYKFSQCSFSKPVFPYLNPRKCTVPMTLCSPSS [rhesus TRIM5α, 332-344 = GAPGTRFTFPTFV]	1.14 ± 0.39
MASGILLNVKEEVTCPICLELLTEPLSLHCGHSFCQACITANHKKSMLYKEGERSCPVCRISYQPENIQPNRHVANIVEKLREVKLSPEEGQKVDHCARHGEKLLLFCQEDSKVICWLCERSQEHRGHHTFLMEEVAQEYHVKLQTALEMLRQKQQEAEKLEADIREEKASWKIQIDYDKTNVSADFEQLREILDWEESNELQNLEKEEEDILKSLTKSETEMVQQTQYMRELISELEHRLQGSMMDLLQGVDGIIKRIENMTLKKPKTFHKNQRRVFRAPDLKGMLDMFRELTDARRYWVDVTLAPNNISHAVIAEDKRQVSSRNPQIMYGAPGTRYTFPSLTNFNYCTGVLGSQSITSGKHYWEVDVSKKSAWILGVCAGFQSDAMYNIEQNENYQPKYGYWVIGLQEGVKYSVFQDGSSHTPFAPFIVPLSVIICPDRVGVFVDYEACTVSFFNITNHGFLIYKFSQCSFSKPVFPYLNPRKCTVPMTLCSPSS [rhesus TRIM5α, 332-344 = GAPGTRYTFPSLT]	1.38 ± 0.081
MASGILLNVKEEVTCPICLELLTEPLSLHCGHSFCQACITANHKKSMLYKEGERSCPVCRISYQPENIQPNRHVANIVEKLREVKLSPEEGQKVDHCARHGEKLLLFCQEDSKVICWLCERSQEHRGHHTFLMEEVAQEYHVKLQTALEMLRQKQQEAEKLEADIREEKASWKIQIDYDKTNVSADFEQLREILDWEESNELQNLEKEEEDILKSLTKSETEMVQQTQYMRELISELEHRLQGSMMDLLQGVDGIIKRIENMTLKKPKTFHKNQRRVFRAPDLKGMLDMFRELTDARRYWVDVTLAPNNISHAVIAEDKRQVSSRNPQIMYQAPGTLYTFQTFTNFNYCTGVLGSQSITSGKHYWEVDVSKKSAWILGVCAGFQSDAMYNIEQNENYQPKYGYWVIGLQEGVKYSVFQDGSSHTPFAPFIVPLSVIICPDRVGVFVDYEACTVSFFNITNHGFLIYKFSQCSFSKPVFPYLNPRKCTVPMTLCSPSS [rhesus TRIM5α, 332-344 = QAPGTLYTFQTFT]	1.18 ± 0.53
MASGILLNVKEEVTCPICLELLTEPLSLHCGHSFCQACITANHKKSMLYKEGERSCPVCRISYQPENIQPNRHVANIVEKLREVKLSPEEGQKVDHCARHGEKLLLFCQEDSKVICWLCERSQEHRGHHTFLMEEVAQEYHVKLQTALEMLRQKQQEAEKLEADIREEKASWKIQIDYDKTNVSADFEQLREILDWEESNELQNLEKEEEDILKSLTKSETEMVQQTQYMRELISELEHRLQGSMMDLLQGVDGIIKRIENMTLKKPKTFHKNQRRVFRAPDLKGMLDMFRELTDARRYWVDVTLAPNNISHAVIAEDKRQVSSRNPQIMYGARGTLYTFPSLTNFNYCTGVLGSQSITSGKHYWEVDVSKKSAWILGVCAGFQSDAMYNIEQNENYQPKYGYWVIGLQEGVKYSVFQDGSSHTPFAPFIVPLSVIICPDRVGVFVDYEACTVSFFNITNHGFLIYKFSQCSFSKPVFPYLNPRKCTVPMTLCSPSS [rhesus TRIM5α, 332-344 = GARGTLYTFPSLT]	1.18 ± 0.26
MASGILLNVKEEVTCPICLELLTEPLSLHCGHSFCQACITANHKKSMLYKEGERSCPVCRISYQPENIQPNRHVANIVEKLREVKLSPEEGQKVDHCARHGEKLLLFCQEDSKVICWLCERSQEHRGHHTFLMEEVAQEYHVKLQTALEMLRQKQQEAEKLEADIREEKASWKIQIDYDKTNVSADFEQLREILDWEESNELQNLEKEEEDILKSLTKSETEMVQQTQYMRELISELEHRLQGSMMDLLQGVDGIIKRIENMTLKKPKTFHKNQRRVFRAPDLKGMLDMFRELTDARRYWVDVTLAPNNISHAVIAEDKRQVSSRNPQIMYGARGTLYTFPTLTNFNYCTGVLGSQSITSGKHYWEVDVSKKSAWILGVCAGFQSDAMYNIEQNENYQPKYGYWVIGLQEGVKYSVFQDGSSHTPFAPFIVPLSVIICPDRVGVFVDYEACTVSFFNITNHGFLIYKFSQCSFSKPVFPYLNPRKCTVPMTLCSPSS [rhesus TRIM5α, 332-344 = GARGTLYTFPTLT]	0.336 ± 0.0039
